Data on 8 molecules can be found in PMC5128866.

These are yes or no findings as the source states them, for the method shown. For some of these results: Binding seen in cells or lysates may run through a third protein. Some results given as binding are weak or reduced against the parent protein; the word gives no strength. Sequences can lack the tags named with a protein.

Assay [1] deals with T1, N1, N-terminal fragment of Ams2 (amino acid residues 1-143), two-hybrid fusion (fission yeast (Schizosaccharomyces pombe)) (UniProt Q9URT4).
T1 sequence: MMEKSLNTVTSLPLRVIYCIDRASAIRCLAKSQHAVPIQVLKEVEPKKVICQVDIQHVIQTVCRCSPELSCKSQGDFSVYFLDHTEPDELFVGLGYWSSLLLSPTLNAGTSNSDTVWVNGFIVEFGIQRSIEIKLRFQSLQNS
Put plainly: two-hybrid; budding yeast strain L40 (LexAop-HIS3); pBTM (BD) bait and pGAD (AD) prey; growth on medium lacking tryptophan, leucine and histidine with 25 mM 3-AT at 30 °C.

For assay [2], the target named is T2, BD-Teb1N, N-terminal fragment of Teb1 (amino acid residues 1-237) fused with a DNA-binding domain (fission yeast (Schizosaccharomyces pombe)) (UniProt Q10274).
T2 sequence: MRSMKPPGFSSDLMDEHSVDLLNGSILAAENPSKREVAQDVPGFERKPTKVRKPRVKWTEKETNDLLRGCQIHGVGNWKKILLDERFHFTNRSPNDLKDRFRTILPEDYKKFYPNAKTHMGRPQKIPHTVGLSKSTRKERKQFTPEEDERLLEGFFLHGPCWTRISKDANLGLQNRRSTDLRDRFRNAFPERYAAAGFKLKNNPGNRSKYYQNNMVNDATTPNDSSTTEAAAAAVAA
Described as above.

Assay [3] has as its target T3, Ams2 in fission yeast lysate (GFP-tagged Ams2 from the chromosomal locus; HA-tagged wild-type Ams2 overproduced from pRep41) (fission yeast (Schizosaccharomyces pombe)) (UniProt Q9URT4).
T3 sequence: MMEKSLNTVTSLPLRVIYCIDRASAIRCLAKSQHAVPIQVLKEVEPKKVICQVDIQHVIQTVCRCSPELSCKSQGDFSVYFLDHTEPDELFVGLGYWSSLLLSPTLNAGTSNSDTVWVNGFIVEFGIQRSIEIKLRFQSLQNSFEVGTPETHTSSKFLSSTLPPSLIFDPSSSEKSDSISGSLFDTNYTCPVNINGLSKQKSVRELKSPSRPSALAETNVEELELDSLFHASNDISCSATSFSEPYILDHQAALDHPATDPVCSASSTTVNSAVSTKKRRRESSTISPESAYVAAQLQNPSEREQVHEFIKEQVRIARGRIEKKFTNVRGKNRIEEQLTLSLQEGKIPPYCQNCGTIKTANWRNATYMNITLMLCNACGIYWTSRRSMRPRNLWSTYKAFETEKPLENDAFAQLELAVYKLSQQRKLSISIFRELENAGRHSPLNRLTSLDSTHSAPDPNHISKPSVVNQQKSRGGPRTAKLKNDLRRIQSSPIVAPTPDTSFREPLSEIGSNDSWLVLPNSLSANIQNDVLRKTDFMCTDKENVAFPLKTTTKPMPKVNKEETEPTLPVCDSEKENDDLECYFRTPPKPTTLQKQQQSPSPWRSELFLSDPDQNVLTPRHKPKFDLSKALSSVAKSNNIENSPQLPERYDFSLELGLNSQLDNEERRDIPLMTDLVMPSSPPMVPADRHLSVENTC
Put plainly: co-IP; S. pombe lysates (cells arrested in S phase with 12 mM HU) in IP buffer (50 mM HEPES pH 7.5, 250 mM NaCl, 0.1% NP40); anti-GFP antibody and Dynabeads anti-Mouse IgG at 4 °C; western blotting with anti-HA.

B1: N1, N-terminal fragment of Ams2 (amino acid residues 1-143), two-hybrid fusion (domain or fragment, UniProt Q9URT4 1-143)
chain: MMEKSLNTVTSLPLRVIYCIDRASAIRCLAKSQHAVPIQVLKEVEPKKVICQVDIQHVIQTVCRCSPELSCKSQGDFSVYFLDHTEPDELFVGLGYWSSLLLSPTLNAGTSNSDTVWVNGFIVEFGIQRSIEIKLRFQSLQNS
Turning to B1, in assay [1], the binding result is listed as “binds”.

B2: AD-full-length Ams2 (protein, UniProt Q9URT4 1-697)
chain: MMEKSLNTVTSLPLRVIYCIDRASAIRCLAKSQHAVPIQVLKEVEPKKVICQVDIQHVIQTVCRCSPELSCKSQGDFSVYFLDHTEPDELFVGLGYWSSLLLSPTLNAGTSNSDTVWVNGFIVEFGIQRSIEIKLRFQSLQNSFEVGTPETHTSSKFLSSTLPPSLIFDPSSSEKSDSISGSLFDTNYTCPVNINGLSKQKSVRELKSPSRPSALAETNVEELELDSLFHASNDISCSATSFSEPYILDHQAALDHPATDPVCSASSTTVNSAVSTKKRRRESSTISPESAYVAAQLQNPSEREQVHEFIKEQVRIARGRIEKKFTNVRGKNRIEEQLTLSLQEGKIPPYCQNCGTIKTANWRNATYMNITLMLCNACGIYWTSRRSMRPRNLWSTYKAFETEKPLENDAFAQLELAVYKLSQQRKLSISIFRELENAGRHSPLNRLTSLDSTHSAPDPNHISKPSVVNQQKSRGGPRTAKLKNDLRRIQSSPIVAPTPDTSFREPLSEIGSNDSWLVLPNSLSANIQNDVLRKTDFMCTDKENVAFPLKTTTKPMPKVNKEETEPTLPVCDSEKENDDLECYFRTPPKPTTLQKQQQSPSPWRSELFLSDPDQNVLTPRHKPKFDLSKALSSVAKSNNIENSPQLPERYDFSLELGLNSQLDNEERRDIPLMTDLVMPSSPPMVPADRHLSVENTC
B2: the binding result in assay [2] and in assay [1] was “binds” in each case.

B3: Ams2 in fission yeast lysate (GFP-tagged Ams2 from the chromosomal locus; HA-tagged wild-type Ams2 overproduced from pRep41) (protein, UniProt Q9URT4 1-697)
chain: MMEKSLNTVTSLPLRVIYCIDRASAIRCLAKSQHAVPIQVLKEVEPKKVICQVDIQHVIQTVCRCSPELSCKSQGDFSVYFLDHTEPDELFVGLGYWSSLLLSPTLNAGTSNSDTVWVNGFIVEFGIQRSIEIKLRFQSLQNSFEVGTPETHTSSKFLSSTLPPSLIFDPSSSEKSDSISGSLFDTNYTCPVNINGLSKQKSVRELKSPSRPSALAETNVEELELDSLFHASNDISCSATSFSEPYILDHQAALDHPATDPVCSASSTTVNSAVSTKKRRRESSTISPESAYVAAQLQNPSEREQVHEFIKEQVRIARGRIEKKFTNVRGKNRIEEQLTLSLQEGKIPPYCQNCGTIKTANWRNATYMNITLMLCNACGIYWTSRRSMRPRNLWSTYKAFETEKPLENDAFAQLELAVYKLSQQRKLSISIFRELENAGRHSPLNRLTSLDSTHSAPDPNHISKPSVVNQQKSRGGPRTAKLKNDLRRIQSSPIVAPTPDTSFREPLSEIGSNDSWLVLPNSLSANIQNDVLRKTDFMCTDKENVAFPLKTTTKPMPKVNKEETEPTLPVCDSEKENDDLECYFRTPPKPTTLQKQQQSPSPWRSELFLSDPDQNVLTPRHKPKFDLSKALSSVAKSNNIENSPQLPERYDFSLELGLNSQLDNEERRDIPLMTDLVMPSSPPMVPADRHLSVENTC
For the molecule B3, the binding result in assay [3] was “binds”.

B4: AD-zinc finger-mutated Ams2 (MZF) (protein, UniProt Q9URT4 1-697)
chain: MMEKSLNTVTSLPLRVIYCIDRASAIRCLAKSQHAVPIQVLKEVEPKKVICQVDIQHVIQTVCRCSPELSCKSQGDFSVYFLDHTEPDELFVGLGYWSSLLLSPTLNAGTSNSDTVWVNGFIVEFGIQRSIEIKLRFQSLQNSFEVGTPETHTSSKFLSSTLPPSLIFDPSSSEKSDSISGSLFDTNYTCPVNINGLSKQKSVRELKSPSRPSALAETNVEELELDSLFHASNDISCSATSFSEPYILDHQAALDHPATDPVCSASSTTVNSAVSTKKRRRESSTISPESAYVAAQLQNPSEREQVHEFIKEQVRIARGRIEKKFTNVRGKNRIEEQLTLSLQEGKIPPYCQNCGTIKTANWRNATYMNITLMLANAAGIYWTSRRSMRPRNLWSTYKAFETEKPLENDAFAQLELAVYKLSQQRKLSISIFRELENAGRHSPLNRLTSLDSTHSAPDPNHISKPSVVNQQKSRGGPRTAKLKNDLRRIQSSPIVAPTPDTSFREPLSEIGSNDSWLVLPNSLSANIQNDVLRKTDFMCTDKENVAFPLKTTTKPMPKVNKEETEPTLPVCDSEKENDDLECYFRTPPKPTTLQKQQQSPSPWRSELFLSDPDQNVLTPRHKPKFDLSKALSSVAKSNNIENSPQLPERYDFSLELGLNSQLDNEERRDIPLMTDLVMPSSPPMVPADRHLSVENTC
For the molecule B4, the binding entry in assay [1] is “binds”.

B5: HA-tagged zinc finger-mutated Ams2 protein (MZF), overproduced (protein, UniProt Q9URT4 1-697)
chain: MMEKSLNTVTSLPLRVIYCIDRASAIRCLAKSQHAVPIQVLKEVEPKKVICQVDIQHVIQTVCRCSPELSCKSQGDFSVYFLDHTEPDELFVGLGYWSSLLLSPTLNAGTSNSDTVWVNGFIVEFGIQRSIEIKLRFQSLQNSFEVGTPETHTSSKFLSSTLPPSLIFDPSSSEKSDSISGSLFDTNYTCPVNINGLSKQKSVRELKSPSRPSALAETNVEELELDSLFHASNDISCSATSFSEPYILDHQAALDHPATDPVCSASSTTVNSAVSTKKRRRESSTISPESAYVAAQLQNPSEREQVHEFIKEQVRIARGRIEKKFTNVRGKNRIEEQLTLSLQEGKIPPYCQNCGTIKTANWRNATYMNITLMLANAAGIYWTSRRSMRPRNLWSTYKAFETEKPLENDAFAQLELAVYKLSQQRKLSISIFRELENAGRHSPLNRLTSLDSTHSAPDPNHISKPSVVNQQKSRGGPRTAKLKNDLRRIQSSPIVAPTPDTSFREPLSEIGSNDSWLVLPNSLSANIQNDVLRKTDFMCTDKENVAFPLKTTTKPMPKVNKEETEPTLPVCDSEKENDDLECYFRTPPKPTTLQKQQQSPSPWRSELFLSDPDQNVLTPRHKPKFDLSKALSSVAKSNNIENSPQLPERYDFSLELGLNSQLDNEERRDIPLMTDLVMPSSPPMVPADRHLSVENTC
Regarding B5, the binding entry in assay [3] is “binds”.

B6: AD-C1, C-terminal fragment C1 of Ams2 (amino acid residues 143-697) (domain or fragment, UniProt Q9URT4 143-697)
chain: SFEVGTPETHTSSKFLSSTLPPSLIFDPSSSEKSDSISGSLFDTNYTCPVNINGLSKQKSVRELKSPSRPSALAETNVEELELDSLFHASNDISCSATSFSEPYILDHQAALDHPATDPVCSASSTTVNSAVSTKKRRRESSTISPESAYVAAQLQNPSEREQVHEFIKEQVRIARGRIEKKFTNVRGKNRIEEQLTLSLQEGKIPPYCQNCGTIKTANWRNATYMNITLMLCNACGIYWTSRRSMRPRNLWSTYKAFETEKPLENDAFAQLELAVYKLSQQRKLSISIFRELENAGRHSPLNRLTSLDSTHSAPDPNHISKPSVVNQQKSRGGPRTAKLKNDLRRIQSSPIVAPTPDTSFREPLSEIGSNDSWLVLPNSLSANIQNDVLRKTDFMCTDKENVAFPLKTTTKPMPKVNKEETEPTLPVCDSEKENDDLECYFRTPPKPTTLQKQQQSPSPWRSELFLSDPDQNVLTPRHKPKFDLSKALSSVAKSNNIENSPQLPERYDFSLELGLNSQLDNEERRDIPLMTDLVMPSSPPMVPADRHLSVENTC
On to B6, for which the values for the binding entry in assay [2] and in assay [1] were “binds” and “no binding”, respectively.

B7: HA-tagged N1 region-deleted Ams2 protein (C1), overproduced (domain or fragment, UniProt Q9URT4 143-697)
chain: SFEVGTPETHTSSKFLSSTLPPSLIFDPSSSEKSDSISGSLFDTNYTCPVNINGLSKQKSVRELKSPSRPSALAETNVEELELDSLFHASNDISCSATSFSEPYILDHQAALDHPATDPVCSASSTTVNSAVSTKKRRRESSTISPESAYVAAQLQNPSEREQVHEFIKEQVRIARGRIEKKFTNVRGKNRIEEQLTLSLQEGKIPPYCQNCGTIKTANWRNATYMNITLMLCNACGIYWTSRRSMRPRNLWSTYKAFETEKPLENDAFAQLELAVYKLSQQRKLSISIFRELENAGRHSPLNRLTSLDSTHSAPDPNHISKPSVVNQQKSRGGPRTAKLKNDLRRIQSSPIVAPTPDTSFREPLSEIGSNDSWLVLPNSLSANIQNDVLRKTDFMCTDKENVAFPLKTTTKPMPKVNKEETEPTLPVCDSEKENDDLECYFRTPPKPTTLQKQQQSPSPWRSELFLSDPDQNVLTPRHKPKFDLSKALSSVAKSNNIENSPQLPERYDFSLELGLNSQLDNEERRDIPLMTDLVMPSSPPMVPADRHLSVENTC
Regarding B7, in assay [3], the binding entry is recorded as “no binding”.

B8: AD-C2, C-terminal fragment C2 of Ams2 (amino acid residues 347-697) (domain or fragment, UniProt Q9URT4 347-697)
chain: IPPYCQNCGTIKTANWRNATYMNITLMLCNACGIYWTSRRSMRPRNLWSTYKAFETEKPLENDAFAQLELAVYKLSQQRKLSISIFRELENAGRHSPLNRLTSLDSTHSAPDPNHISKPSVVNQQKSRGGPRTAKLKNDLRRIQSSPIVAPTPDTSFREPLSEIGSNDSWLVLPNSLSANIQNDVLRKTDFMCTDKENVAFPLKTTTKPMPKVNKEETEPTLPVCDSEKENDDLECYFRTPPKPTTLQKQQQSPSPWRSELFLSDPDQNVLTPRHKPKFDLSKALSSVAKSNNIENSPQLPERYDFSLELGLNSQLDNEERRDIPLMTDLVMPSSPPMVPADRHLSVENTC
With B8, the binding entry in assay [2] was “no binding”.
